These are yes or no findings as the source states them, for the method shown. Binding seen in cells or lysates may run through a third protein. Some binding calls cover weakened binding; strength is not graded here.
Key:
[1] = molecular target: caveolin-1 (CAV1), endogenous in RKO cells (human (endogenous in RKO)) (UniProt Q03135); experiment: co-IP; CAV1 and β-catenin in RKO cells stably expressing shScramble or shHSPA8; IP lysis buffer, antibody overnight at 4 °C, protein A+G agarose, immunoblot
[2] = molecular target: caveolin-1 (CAV1), endogenous in RKO cells (human (endogenous in RKO)) (UniProt Q03135); experiment: co-IP; endogenous proteins in RKO cells; IP lysis buffer (137 mM NaCl, 20 mM Tris, 10% glycerol, 2 mM EDTA, 1% NP-40, pH 8), antibody overnight at 4 °C, protein A+G agarose 4 h, immunoblot
HA-CAV1 S168D (human) = HA-CAV1 S168D (human) (UniProt Q03135); experiment: co-IP; HSPA8 and HA-CAV1 S168A or S168D in HEK293T cells; IP lysis buffer, antibody overnight at 4 °C, protein A+G agarose, immunoblot
[3] = molecular target: CAV1 in HEK293T cells (co-IP of Figure 5A) (human) (UniProt Q03135); experiment: co-IP; CAV1 with LAMP2A, β-catenin and LC3 in HEK293T cells; IP lysis buffer, antibody overnight at 4 °C, protein A+G agarose, immunoblot
[4] = molecular target: HA-CAV1 with KIFSN motif deletion (Del) (human) (UniProt Q03135); experiment: co-IP; myc-HSPA8 and HA-CAV1 (WT or Del) in HEK293T cells; IP lysis buffer (137 mM NaCl, 20 mM Tris, 10% glycerol, 2 mM EDTA, 1% NP-40, pH 8), antibody overnight at 4 °C, protein A+G agarose 4 h, immunoblot
[5] = molecular target: HA-CAV1 full length (WT) (human) (UniProt Q03135); experiment: as above

The chains behind the UniProt entries cited, without tags or fusion partners. Where a name states a change or a piece, a line headed by the entry shows the natural chain unless it says otherwise. A line that says so, or that is headed by a name, gives the form on record, which may keep a tag or linker.
UniProt Q03135: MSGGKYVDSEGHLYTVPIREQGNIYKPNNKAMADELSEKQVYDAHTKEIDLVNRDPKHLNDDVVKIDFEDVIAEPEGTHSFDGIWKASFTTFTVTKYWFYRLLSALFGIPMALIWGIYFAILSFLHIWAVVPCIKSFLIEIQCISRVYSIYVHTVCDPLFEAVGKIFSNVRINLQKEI
HA-CAV1 with KIFSN motif deletion (Del) (Q03135, form named): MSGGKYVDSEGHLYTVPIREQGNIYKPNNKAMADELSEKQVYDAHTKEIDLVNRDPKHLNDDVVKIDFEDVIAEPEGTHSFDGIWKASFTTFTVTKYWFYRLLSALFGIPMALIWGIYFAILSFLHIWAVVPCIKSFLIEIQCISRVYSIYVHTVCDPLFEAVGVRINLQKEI
UniProt P35222: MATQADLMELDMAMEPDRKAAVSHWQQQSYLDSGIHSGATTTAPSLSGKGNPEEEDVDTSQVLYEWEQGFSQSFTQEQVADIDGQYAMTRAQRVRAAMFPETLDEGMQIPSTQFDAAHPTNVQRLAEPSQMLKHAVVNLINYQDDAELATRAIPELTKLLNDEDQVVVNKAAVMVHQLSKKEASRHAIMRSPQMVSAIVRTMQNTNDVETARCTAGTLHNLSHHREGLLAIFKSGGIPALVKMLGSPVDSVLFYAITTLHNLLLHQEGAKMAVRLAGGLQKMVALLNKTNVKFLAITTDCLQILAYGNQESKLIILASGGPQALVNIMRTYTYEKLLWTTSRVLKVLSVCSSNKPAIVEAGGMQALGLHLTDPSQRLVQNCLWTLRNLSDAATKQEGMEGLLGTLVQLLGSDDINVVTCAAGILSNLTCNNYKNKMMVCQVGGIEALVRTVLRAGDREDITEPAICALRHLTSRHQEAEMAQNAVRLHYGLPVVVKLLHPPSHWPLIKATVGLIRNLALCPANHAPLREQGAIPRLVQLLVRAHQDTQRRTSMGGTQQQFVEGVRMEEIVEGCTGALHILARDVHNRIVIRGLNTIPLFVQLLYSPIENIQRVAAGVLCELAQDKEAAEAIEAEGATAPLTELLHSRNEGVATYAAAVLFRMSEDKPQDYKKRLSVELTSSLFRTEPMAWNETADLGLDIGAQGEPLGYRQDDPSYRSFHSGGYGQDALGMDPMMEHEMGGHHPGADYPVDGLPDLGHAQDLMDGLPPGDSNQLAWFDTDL
UniProt P11142: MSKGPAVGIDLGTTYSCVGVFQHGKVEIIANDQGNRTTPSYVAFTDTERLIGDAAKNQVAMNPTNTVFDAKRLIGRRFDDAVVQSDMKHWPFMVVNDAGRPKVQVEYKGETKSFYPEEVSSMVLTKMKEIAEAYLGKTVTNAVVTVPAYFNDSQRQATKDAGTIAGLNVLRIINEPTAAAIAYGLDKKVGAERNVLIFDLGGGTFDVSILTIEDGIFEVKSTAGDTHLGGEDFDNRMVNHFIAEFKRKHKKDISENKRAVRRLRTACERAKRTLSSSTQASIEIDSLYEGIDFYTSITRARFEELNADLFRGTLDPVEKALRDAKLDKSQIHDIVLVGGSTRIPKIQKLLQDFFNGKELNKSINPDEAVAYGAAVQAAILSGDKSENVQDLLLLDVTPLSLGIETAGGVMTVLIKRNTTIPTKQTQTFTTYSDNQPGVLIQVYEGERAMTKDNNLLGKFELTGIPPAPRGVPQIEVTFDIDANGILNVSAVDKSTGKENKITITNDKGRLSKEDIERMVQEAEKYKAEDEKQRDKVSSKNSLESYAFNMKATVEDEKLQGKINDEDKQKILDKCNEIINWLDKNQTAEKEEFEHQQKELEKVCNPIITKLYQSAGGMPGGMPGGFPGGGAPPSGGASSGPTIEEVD

Substance: β-catenin in RKO cells (from UniProt P35222 1-781)
- binding [1]: binds

Substance: heat shock 70 kDa protein 8 (HSPA8), endogenous in RKO cells (from UniProt P11142 1-646)
- binding [2]: binds

Substance: HSPA8 in HEK293T cells (co-IP of Figure 4J) (from UniProt P11142 1-646)
- binding (HA-CAV1 S168D (human)): binds

Substance: β-catenin in HEK293T cells (from UniProt P35222 1-781)
- binding [3]: binds

Substance: myc-HSPA8 (from UniProt P11142 1-646)
- binding [4]: no binding
- binding [5]: binds

From PMC10797426
